For 115 compounds, displacement results are on record in PubChem BioAssay AID1240 (Sanford-Burnham Center for Chemical Genomics, 2008).

About 800 (1.6%) of roughly 50,000 compounds showed an effect of 50% or more. Some of the results follow.

This experiment deals with Bcl-2-like protein 10 (Homo sapiens) (UniProt Q9HD36). The experiment can be described thus: TR3 peptide-Bcl-B binding displacers, biochemical primary FP assay, phenotype converters (AID 1240).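 Note: 0% = Bcl-B with tracer peptide and DMSO and 100% = tracer peptide lacking Bcl-B.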 Conditions: GST-Bcl-B / FITC-TR3 peptide fluorescence polarization; stronger effect = higher value; compound at 3.75 mg/L.
Sequence of UniProt Q9HD36 (Q9HD36 whole entry, looked up): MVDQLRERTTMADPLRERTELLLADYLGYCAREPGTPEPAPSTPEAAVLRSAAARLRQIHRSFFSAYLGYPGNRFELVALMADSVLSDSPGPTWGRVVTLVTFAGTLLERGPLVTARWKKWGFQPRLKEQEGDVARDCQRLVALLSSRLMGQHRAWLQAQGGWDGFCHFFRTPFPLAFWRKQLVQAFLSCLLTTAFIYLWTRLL
For `O=C1NC(=O)N(c2cccc(F)c2)C(=O)/C1=C/c1ccc(Sc2ccccc2)o1`, the displacement was -18.2%. Next, `CSc1nsc(SC)c1NC(=O)OC1CCCCC1`: -1.7%; `CCOc1ccc(C2=C/C(=C/c3ccc(Br)o3)C(=O)O2)cc1`: -22.1%. Next, `CCOC(=O)C1=C(C)N=c2s/c(=C\c3ccc(N(C)C)o3)c(=O)n2C1c1cccs1` (stereo not given): 0.1%; `Cc1ccc(NC(=O)c2c(NC(=O)c3cccs3)sc3c2CCCCC3)c(C)c1`: -8%; `O=C1C2C3C=CC(C4CC34)C2C(=O)N1c1ccc(Cl)cc1` (stereo not given): -3.5%.

In the case of `COc1cccc(/C=C(\C#N)C(N)=O)c1`, the displacement is -3.8%. Next, `Cc1ccc(S(=O)(=O)Nc2ccc(S(=O)(=O)N3CCOCC3)cc2)cc1`: 8.2%. The result for `COc1ccc(N2C(=O)CC(NCc3ccc(Cl)c(Cl)c3)C2=O)cc1` (stereo not given) reads -0.9%; that for `CNc1nc(Nc2ccc([N+](=O)[O-])cc2)nc(OCC(F)(F)C(F)F)n1`, 13.8%. Regarding `O=C(O)CN(c1ccc(Br)cc1)S(=O)(=O)c1ccccc1`, the displacement was found to be 0%. The result for `CCOC(=O)c1c(NC(=O)/C=C/c2cccs2)sc(C)c1C` reads 2.9%; that for `Cc1[nH]c2ccccc2c1/C=C/c1nc2ccccc2c(=O)n1C`, 186%; that for `O=C(CCC(=O)N/N=C/c1ccccc1C(F)(F)F)N/N=C/c1ccccc1C(F)(F)F`, 2.4%. Turning to `C=C(Br)n1c(COc2ccccc2)nc2ccccc21`, the displacement turned out to be 9.8%. The result for `O=C(Cn1c(-c2ccccc2)c[n+]2ccsc12)c1ccc([N+](=O)[O-])cc1` reads 13.8%; that for `O=C(N=Nc1c(O)n(CN2CCCC2)c2ccccc12)c1cccnc1`, 5.9%. The result for `COc1ccccc1N(CC(=O)NC(C)c1ccccc1)S(=O)(=O)c1ccccc1` (stereo not given) reads 1.1%; that for `CC(C)(C)OC(=O)N1CC(O)CC1C(=O)OCC(=O)c1ccc(-c2ccccc2)cc1` (stereo not given), 4.5%; that for `O=C(O)CCN1C(=O)/C(=C/c2ccc(-c3ccccc3[N+](=O)[O-])o2)SC1=S`, 40.8%. For `CCOC(=O)c1ccc(NC(=O)CN(c2ccc(C)cc2)S(C)(=O)=O)cc1`, the displacement came to 6.5%. Next, `c1csc(CNc2ccc(-c3nc4ccccc4s3)cc2)c1`: 12.1%; `CCC(=O)Nc1ccc(NC(=O)c2ccc(Br)o2)cc1`: 13.2%; `COC(=O)C1C(C(C)C)N(c2ccccc2)OC1(C)O` (stereo not given): 11.7%.

Turning to `Cc1cc(Cl)ccc1OC(C)C(=O)NCc1ccc2c(c1)OCO2` (stereo not given), the displacement was -6.5%. The result for `NC(=O)c1nn2c(C(F)(F)F)cc(-c3ccccc3)nc2c1Br` reads 3.7%; that for `Cc1cccc(C(=O)O/N=C(\N)c2cccnc2)c1`, 11.7%. The result for `COc1cccc(NC(=S)NC(NC(=O)c2ccccc2)C(Cl)(Cl)Cl)c1` (stereo not given) reads -0.4%; that for `OC(COCC1CC=CCC1)Cn1c2ccccc2c2ccccc21` (stereo not given), -3.8%; that for `C/C(O)=C\C(N)=N/c1nc(C)cc(C)n1`, 19.9%. Turning to `O=C(NCc1cccc(CNC(=O)C(=O)NCC2CCCO2)c1)C(=O)NCC1CCCO1` (stereo not given), the displacement stood at 10.9%. For the compound `O=S(=O)(Nc1ccc(Br)cc1)c1ccc(Cl)cc1`, the displacement was determined as 13.5%. The result for `CC(C)(C)NC(=S)NC12CC3CC(CC(C3)C1)C2` reads 15.4%.

On to `O=C(NC1CCCCC1)C1CN(S(=O)(=O)c2ccccc2)CCN1S(=O)(=O)c1ccccc1` (stereo not given), for which the displacement was -6.2%. Next, `O=S(=O)(Nc1ccc(S(=O)(=O)N2CCCCC2)cc1)c1ccccc1`: 4.5%; `O=C(NCc1ccccc1)C(O)(c1ccc(Cl)cc1)c1ccc(Cl)cc1`: -6%; `CC(C)(C)C(=O)/C=C/c1ccc([N+](=O)[O-])cc1`: 7%.

For the compound `COc1ccccc1C(=O)NC(=S)Nc1ccccc1`, the displacement was found to be 2.5%.

With `Cc1cc(OCCCCCn2ccnc2)cc(C)c1Cl`, the displacement was -5.3%. The result for `C/C(=N\N=C1\NC(=O)C(CC(=O)Nc2ccccc2F)S1)c1ccc(Cl)cc1` (stereo not given) reads -2.7%; that for `O=C1CC(c2cc(Br)ccc2F)c2ccc3ccccc3c2N1` (stereo not given), 11.2%; that for `CC(=O)c1cccc(NC(=O)c2ccc3c(c2)OCO3)c1`, -14.5%.

Regarding `O=C(Nc1ccccc1C(=O)O)c1cccc(N2C(=O)c3cccc([N+](=O)[O-])c3C2=O)c1`, the displacement was 1.4%. The result for `NS(=O)(=O)c1ccc(NC(=O)CCC2CCCCC2)cc1` reads -1.8%; that for `COc1cc(Br)c(/C=N/NS(=O)(=O)c2ccc(C)cc2)cc1OC`, 10.2%; that for `CS(=O)(=O)N1CCN(C(=O)Cc2ccccc2)CC1`, 12.7%. The result for `Cc1nnc(C)n1/N=C/c1ccc(Cl)c([N+](=O)[O-])c1` reads 8.3%; that for `Cc1cc(/C=N/n2cnnc2)c(C)n1-c1ccccc1`, 13.6%. The result for `O=C(Nc1ccc(Cl)cc1)Nc1nnc(Cc2ccccc2)s1` reads 12%; that for `CN(C)c1ccc(/C=N/NC(=O)c2cc(Br)ccc2O)cc1`, 12%; that for `Clc1ccc(Cn2cc(/C=N/n3cnnc3)c3ccccc32)cc1Cl`, 2.8%.

On to `OC(C#CCN1CCCCC1)(c1ccccc1)c1ccccc1`, for which the displacement turned out to be 4.7%. Next, `CCOC(=O)c1cc(C(=O)NC(C)c2ccccc2)c(=O)[nH]c1C` (stereo not given): 4.8%; `N#Cc1c(/N=C/c2ccccc2Cl)sc2c1CCCC2`: 12.1%; `COC(=O)CSC1=C(C#N)C(c2ccsc2)CC(=O)N1` (stereo not given): -8.1%. On to `COc1ccc(NC(=O)c2cc3ccccc3cc2OC)cc1OC`, for which the displacement stood at 8.8%. As to `COc1ccccc1C(=O)Nc1ccc2nn(-c3ccc(F)cc3)nc2c1`, the displacement was found to be 1.3%. For `Cc1cccc(OCC(=O)O/N=C(\N)Cc2ccc(Cl)cc2Cl)c1`, the displacement worked out at 3.2%. On to `O=C(Nc1ccc(Br)cc1)C1CC(=O)N(c2ccc(Cl)cc2)C1` (stereo not given), for which the displacement is 9%. In the case of `Cc1ccc(-c2cc3nc(C)c(Cl)c(C)n3n2)cc1`, the displacement was -8.3%.

For the compound `O=C(Nc1ccc2oc(-c3ccncc3)nc2c1)c1ccccn1`, the displacement turned out to be 11.6%. The result for `CC(C)(C)n1c(O)c(N=Nc2ccc(Br)cc2)c(=O)[nH]c1=O` reads 0.5%; that for `COc1ccc2nc(SCC(=O)Nc3ccc(Cl)cc3)[nH]c2c1`, 0.3%. On to `O=C(Nc1ccc(Cl)cc1)c1ccncc1`, for which the displacement is -3.3%.

`COC(=O)c1cc(NC(=O)c2ccc3c(c2)OCCO3)cc(C(=O)OC)c1`: the displacement was 11.4%. As for `COc1cccc(/C=C2\Sc3ccccc3C2=O)c1O`, the displacement came out at 4.9%. Next, `Cc1ccc(C2=NNC(c3ccc(Cl)cc3)S2)cc1` (stereo not given): 4.8%; `O=C(NCCc1ccc(Cl)cc1)C(=O)Nc1ccccc1F`: 5.5%. Take `Cc1ccccc1NC(=O)c1cnccn1`: the displacement was -5.9%.

With `COc1ccc(/C=C2/SC(=S)N(Cc3ccccc3)C2=O)cc1OC`, the displacement worked out at 16.1%. The result for `Cc1cc(/C=C2\SC(=S)NC2=O)c(C)n1C` reads -9.3%; that for `NC1=NC(=O)/C(=C/c2cccc(OCc3cccc4ccccc34)c2)S1`, 8.1%. Next, `Cc1c(Cl)cccc1-c1ccc(C(=O)Nc2ccc(Cl)cc2)o1`: -0.6%; `CCOc1ccc(/C=C2/SC(NC(C)=O)=NC2=O)cc1`: 132%; `COc1ccc2ncn(-c3ccccc3)c2c1`: -6.2%. The result for `O=c1oc2cc(OCc3ccc(F)cc3)ccc2cc1-c1nc2ccccc2s1` reads 52.5%; that for `O=c1ccc([N+](=O)[O-])ccc1NCc1ccccc1`, -6.1%. As for `CCOC(=O)c1c(NC(=O)c2ccc([N+](=O)[O-])cc2)sc2c1CCCCCC2`, the displacement is -4.7%. The result for `S=C(Cc1ccccc1)N1CCOCC1` reads 6.4%. The result for `CC(C)(C)SCCN=C1NS(=O)(=O)c2ccccc21` reads 5.3%. On to `COc1ccc(C(=O)Nc2nc3ccc(C)cc3s2)cc1Br`, for which the displacement is 14.6%. Next, `c1ccc(-c2ccc(-c3nc(-c4ccncc4)no3)cc2)cc1`: 0.3%; `CN(C)CCNC(=O)c1ccc(F)cc1`: 13.8%. Take `Cc1c(Br)c(C(F)(F)F)nn1CC(=O)N(C)c1ccccc1`: the displacement turned out to be 9.2%.

As to `CCN1C(=O)CSC1=Nc1ccc(C(=O)O)cc1`, the displacement is -0.4%. With `Cc1cccc(OCC(=O)NC(C)c2ccccc2)c1` (stereo not given), the displacement is -5.2%.

Consider `Cc1cccc(C(=O)N(C(C)C)C(C)C)c1`, for which the displacement is -8.4%. The result for `c1ccc(-c2nnc(-c3cccc(-c4nnc(-c5ccccc5)o4)c3)o2)cc1` reads -1.2%; that for `COc1ccc(C(=O)Nc2ccccc2C(=O)N2CCOCC2)cc1`, 5.5%.

For `N#Cc1cnc(Nc2ccc(Cl)cc2)c(C#N)c1Nc1ccccc1`, the displacement is -4.1%.

With `Cc1ccc2oc(-c3cccc(NS(=O)(=O)c4ccccc4)c3C)nc2c1`, the displacement is -6.4%. Next, `CCCCOc1ccc(Cc2c(O)nc(N)[nH]c2=O)cc1`: 0.1%; `COc1ccc(N2C(=O)CC(Sc3nnc(N)s3)C2=O)cc1` (stereo not given): 8.2%; `CCCc1cc2c(-c3ccccc3)cc(=O)oc2cc1OCC`: 6.2%. Next, `COc1cccc(-c2nnc(NC(=O)/C=C/c3ccccc3)s2)c1`: 51.4%; `COc1ccccc1-c1coc2cc(OC(=O)c3ccc(Cl)cc3)ccc2c1=O`: -2%. The result for `COc1cc(/C=N/n2c(C)nnc2-n2nc(C)cc2C)cc(I)c1O` reads 3.2%. For the compound `COc1cc(F)ccc1S(=O)(=O)N1CCC(C)CC1`, the displacement is -0.3%. Consider `COc1ccc(N(CC(=O)NCC2CCCO2)S(=O)(=O)c2ccccc2)cc1` (stereo not given), for which the displacement was -17.9%. `CC1(C)CC(=O)c2sc(NC(=O)CSc3nc4ccccc4[nH]3)nc2C1`: the displacement was -2.1%. Next, `CC(C)(C)c1cc(C2Nc3cccc4cccc(c34)N2)cc(C(C)(C)C)c1O`: 9.6%; `COC(=O)CCN1C(=O)/C(=C\c2cc(Br)c(O)c(OC)c2)SC1=S`: 53.8%; `Cn1cccc1CN1CCN(S(C)(=O)=O)CC1`: 15.3%. As to `O=C(COc1ccc(Cl)cc1Br)NNC(=O)c1cccs1`, the displacement was -10.7%. For `Cc1ccc2oc(-c3cccc(NC(=O)/C=C/c4ccc(-c5ccccc5[N+](=O)[O-])o4)c3C)nc2c1`, the displacement came out at 9.6%. In the case of `Cc1ccc(-c2csc(-c3cc4ccccc4oc3=O)n2)cc1`, the displacement worked out at 154%. Next, `C[n+]1ccccc1/C=C\c1ccccc1O`: -3.1%.

As to `CCC1=NN(C(=O)c2ccncc2)C(O)(c2ccc(Br)cc2)C1` (stereo not given), the displacement came to 10.2%. The result for `COc1ccc(C)cc1NC(=O)COc1ccc(F)cc1` reads 6.7%; that for `N#C/C(=C/c1cccc2ccccc12)C(=O)Nc1ccc(O)cc1`, 0.2%.

Turning to `C=CCc1cc(/C=C2/C(=O)NC(=O)N(c3ccc(OC)cc3)C2=O)cc(OC)c1O`, the displacement is -1%. The result for `COc1ccccc1C(=O)CC(=O)Nc1ccccc1` reads -0.5%; that for `Cc1ccc(C)n1-c1ccc(Cl)c(C(=O)NN)c1`, -58.5%. The result for `COC(=O)C1=NNC2C(=O)N(c3ccccc3C)C(=O)C12` (stereo not given) reads -4.3%; that for `Cc1cc(C)cc(C(=O)N2CCN=C2c2ccccc2)c1`, -7.8%.
